Data: ChEMBL document CHEMBL1156524, “Profiling the enzymatic properties and inhibition of human complement factor B” (J Biol Chem, 2007)

Assays:
[1] = substrate: CC(=O)N[C@@H](CCCNC(=N)N)C(=O)N[C@@H](C)C(=O)N[C@@H](CO)C(=O)N[C@@H](Cc1cnc[nH]1)C(=O)N[C@@H](CC(C)C)C(=O)NCC(=O)N[C@@H](CC(C)C)C(=O)N[C@@H](C)C(=O)N[C@@H](CCCNC(=N)N)C(=O)Nc1ccc([N+](=O)[O-])cc1; assay: (§1) Activity of human complement factor B assessed as substrate hydrolysis
[2] = substrate: CC(=O)N[C@@H](C)C(=O)N[C@@H](CCCNC(=N)N)C(=O)N[C@@H](C)C(=O)N[C@@H](CO)C(=O)N[C@@H](Cc1cnc[nH]1)C(=O)N[C@@H](CC(C)C)C(=O)NCC(=O)N[C@@H](CC(C)C)C(=O)N[C@@H](C)C(=O)N[C@@H](CCCNC(=N)N)C(=O)Nc1ccc([N+](=O)[O-])cc1; assay: as §1
[3] = substrate: CC(=O)N[C@@H](CCCCN)C(=O)N[C@@H](Cc1cnc[nH]1)C(=O)N[C@@H](CC(C)C)C(=O)NCC(=O)N[C@@H](CC(C)C)C(=O)N[C@@H](C)C(=O)N[C@@H](CCCNC(=N)N)C(=O)Nc1ccc([N+](=O)[O-])cc1; assay: as §1
[4] = substrate: CC(=O)N[C@@H](C)C(=O)N[C@@H](Cc1cnc[nH]1)C(=O)N[C@@H](CC(C)C)C(=O)NCC(=O)N[C@@H](CC(C)C)C(=O)N[C@@H](C)C(=O)N[C@@H](CCCNC(=N)N)C(=O)Nc1ccc([N+](=O)[O-])cc1; assay: as §1
[5] = substrate: CC(=O)N[C@@H](C)C(=O)N[C@@H](CO)C(=O)N[C@@H](Cc1cnc[nH]1)C(=O)N[C@@H](CC(C)C)C(=O)NCC(=O)N[C@@H](CC(C)C)C(=O)N[C@@H](C)C(=O)N[C@@H](CCCNC(=N)N)C(=O)Nc1ccc([N+](=O)[O-])cc1; assay: as §1
[6] = substrate: CC(=O)N[C@@H](CO)C(=O)N[C@@H](Cc1cnc[nH]1)C(=O)N[C@@H](CC(C)C)C(=O)NCC(=O)N[C@@H](CC(C)C)C(=O)N[C@@H](C)C(=O)N[C@@H](CCCNC(=N)N)C(=O)Nc1ccc([N+](=O)[O-])cc1; assay: as §1
[7] = substrate: CC(=O)N[C@@H](CCCNC(=N)N)C(=O)N[C@@H](C)C(=O)N[C@@H](CO)C(=O)N[C@@H](Cc1cnc[nH]1)C(=O)N[C@@H](CC(C)C)C(=O)NCC(=O)N[C@@H](CC(C)C)C(=O)N[C@@H](C)C(=O)N[C@@H](CCCNC(=N)N)C(=O)Nc1ccc([N+](=O)[O-])cc1; assay: (§2) Ratio of kcat to Km for human complement factor B
Summary of the method: (§3)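 Human factor B (25, 50 or 75 nM) in 100 mM glycine-HCl, 154 mM NaCl, pH 9.5, 37 °C. Substrate and enzyme were preincubated separately for 5 min, then mixed. Eight pNA-peptide concentrations (0.2–10.0 mM, or 0.1–3.0 mM) were run in duplicate. A405 was read every 30–60 s for 30–120 min. Initial velocities were fitted by weighted nonlinear Michaelis-Menten regression.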

[8] = substrate: CC(=O)N[C@@H](C)C(=O)N[C@@H](CCCNC(=N)N)C(=O)N[C@@H](C)C(=O)N[C@@H](CO)C(=O)N[C@@H](Cc1cnc[nH]1)C(=O)N[C@@H](CC(C)C)C(=O)NCC(=O)N[C@@H](CC(C)C)C(=O)N[C@@H](C)C(=O)N[C@@H](CCCNC(=N)N)C(=O)Nc1ccc([N+](=O)[O-])cc1; assay: as §2; summary of the method: as §3
[9] = substrate: CC(=O)N[C@@H](CCCCN)C(=O)N[C@@H](Cc1cnc[nH]1)C(=O)N[C@@H](CC(C)C)C(=O)NCC(=O)N[C@@H](CC(C)C)C(=O)N[C@@H](C)C(=O)N[C@@H](CCCNC(=N)N)C(=O)Nc1ccc([N+](=O)[O-])cc1; assay: as §2; summary of the method: as §3
[10] = substrate: CC(=O)N[C@@H](C)C(=O)N[C@@H](Cc1cnc[nH]1)C(=O)N[C@@H](CC(C)C)C(=O)NCC(=O)N[C@@H](CC(C)C)C(=O)N[C@@H](C)C(=O)N[C@@H](CCCNC(=N)N)C(=O)Nc1ccc([N+](=O)[O-])cc1; assay: as §2; summary of the method: as §3
[11] = substrate: CC(=O)N[C@@H](C)C(=O)N[C@@H](CO)C(=O)N[C@@H](Cc1cnc[nH]1)C(=O)N[C@@H](CC(C)C)C(=O)NCC(=O)N[C@@H](CC(C)C)C(=O)N[C@@H](C)C(=O)N[C@@H](CCCNC(=N)N)C(=O)Nc1ccc([N+](=O)[O-])cc1; assay: as §2; summary of the method: as §3
[12] = substrate: CC(=O)N[C@@H](CO)C(=O)N[C@@H](Cc1cnc[nH]1)C(=O)N[C@@H](CC(C)C)C(=O)NCC(=O)N[C@@H](CC(C)C)C(=O)N[C@@H](C)C(=O)N[C@@H](CCCNC(=N)N)C(=O)Nc1ccc([N+](=O)[O-])cc1; assay: as §2; summary of the method: as §3

B1: Complement factor B (Homo sapiens), P00751 (protein)
chain: MGSNLSPQLCLMPFILGLLSGGVTTTPWSLARPQGSCSLEGVEIKGGSFRLLQEGQALEYVCPSGFYPYPVQTRTCRSTGSWSTLKTQDQKTVRKAECRAIHCPRPHDFENGEYWPRSPYYNVSDEISFHCYDGYTLRGSANRTCQVNGRWSGQTAICDNGAGYCSNPGIPIGTRKVGSQYRLEDSVTYHCSRGLTLRGSQRRTCQEGGSWSGTEPSCQDSFMYDTPQEVAEAFLSSLTETIEGVDAEDGHGPGEQQKRKIVLDPSGSMNIYLVLDGSDSIGASNFTGAKKCLVNLIEKVASYGVKPRYGLVTYATYPKIWVKVSEADSSNADWVTKQLNEINYEDHKLKSGTNTKKALQAVYSMMSWPDDVPPEGWNRTRHVIILMTDGLHNMGGDPITVIDEIRDLLYIGKDRKNPREDYLDVYVFGVGPLVNQVNINALASKKDNEQHVFKVKDMENLEDVFYQMIDESQSLSLCGMVWEHRKGTDYHKQPWQAKISVIRPSKGHESCMGAVVSEYFVLTAAHCFTVDDKEHSIKVSVGGEKRDLEIEVVLFHPNYNINGKKEAGIPEFYDYDVALIKLKNKLKYGQTIRPICLPCTEGTTRALRLPPTTTCQQQKEELLPAQDIKALFVSEEEKKLTRKEVYIKNGDKKGSCERDAQYAPGYDKVKDISEVVTPRFLCTGGVSPYADPNTCRGDSGGPLIVHKRSRFIQVGVISWGVVDVCKNQKRQKQVPAHARDFHINLFQVLPWLKEKLQDEDLGFL
[1]
  Km: 15800 µM
  kcat: 12.8 s⁻¹
[2]
  Km: 12400 µM
  kcat: 12.6 s⁻¹
[3]
  Km: 2790 µM
  kcat: 8.25 s⁻¹
[4]
  Km: 2840 µM
  kcat: 8.2 s⁻¹
[5]
  Km: 2190 µM
  kcat: 10.2 s⁻¹
[6]
  Km: 1050 µM
  kcat: 8.38 s⁻¹
[7]
  kcat/Km: 810
[8]
  kcat/Km: 1020
[9]
  kcat/Km: 3040
[10]
  kcat/Km: 2880
[11]
  kcat/Km: 4670
[12]
  kcat/Km: 8320
